Source: the supplement of paper PMC10724272
MIC of invasive clinical C. tropicalis isolates, CLSI broth microdilution (fluconazole 0.12-256 mg/L, up to 1,024 for the azole-resistant cluster and its neighbour group; other ranges not stated); higher = less susceptible. Call: susceptible or wild type [S] / resistant or non-wild type [R] by CLSI breakpoints or cut-offs; intermediate and dose-dependent carry no call. '<=' and '>=' at the end values are inferred; the source marks only some of them. Isolates are numbered anew.

Assays:
Experiment in all cases: CLSI broth microdilution.
[1] = compound: Nc1[nH]c(=O)ncc1F [flucytosine]
[2] = compound: C[C@@H](c1ncncc1F)[C@](O)(Cn1cncn1)c1ccc(F)cc1F [voriconazole]
[3] = compound: CC[C@H](C)C[C@H](C)CCCCCCCCC(=O)N[C@H]1C[C@@H](O)[C@@H](NCCN)NC(=O)[C@@H]2[C@@H](O)CCN2C(=O)[C@H]([C@H](O)CCN)NC(=O)[C@H]([C@H](O)[C@@H](O)c2ccc(O)cc2)NC(=O)[C@@H]2C[C@@H](O)CN2C(=O)[C@H]([C@@H](C)O)NC1=O [caspofungin]
[4] = compound: C[C@@H]1[C@H](O)[C@@H](C)/C=C/C=C/C=C/C=C/C=C/C=C/C=C/[C@H](O[C@@H]2O[C@H](C)[C@@H](O)[C@H](N)[C@@H]2O)C[C@@H]2O[C@](O)(C[C@@H](O)C[C@@H](O)[C@H](O)CC[C@@H](O)C[C@@H](O)CC(=O)O[C@H]1C)C[C@H](O)[C@H]2C(=O)O [amphotericin B]
[5] = compound: CC[C@@H]([C@H](C)O)n1ncn(-c2ccc(N3CCN(c4ccc(OC[C@@H]5CO[C@@](Cn6cncn6)(c6ccc(F)cc6F)C5)cc4)CC3)cc2)c1=O [posaconazole]
[6] = compound: CCC(C)n1ncn(-c2ccc(N3CCN(c4ccc(OCC5COC(Cn6cncn6)(c6ccc(Cl)cc6Cl)O5)cc4)CC3)cc2)c1=O [itraconazole]
[7] = compound: CCCCCOc1ccc(-c2ccc(-c3ccc(C(=O)N[C@H]4C[C@@H](O)[C@@H](O)NC(=O)[C@@H]5[C@@H](O)[C@@H](C)CN5C(=O)[C@H]([C@@H](C)O)NC(=O)[C@H]([C@H](O)[C@@H](O)c5ccc(O)cc5)NC(=O)[C@@H]5C[C@@H](O)CN5C(=O)[C@H]([C@@H](C)O)NC4=O)cc3)cc2)cc1 [anidulafungin]
[8] = compound: OC(Cn1cncn1)(Cn1cncn1)c1ccc(F)cc1F [fluconazole]
[9] = compound: CCCCCOc1ccc(-c2cc(-c3ccc(C(=O)N[C@H]4C[C@@H](O)[C@@H](O)NC(=O)[C@@H]5[C@@H](O)[C@@H](C)CN5C(=O)[C@H]([C@H](O)CC(N)=O)NC(=O)[C@H]([C@H](O)[C@@H](O)c5ccc(O)c(OS(=O)(=O)O)c5)NC(=O)[C@@H]5C[C@@H](O)CN5C(=O)[C@H]([C@@H](C)O)NC4=O)cc3)no2)cc1 [micafungin]

Test System: Candida tropicalis isolate 96 (ERG11 copies: 2, Erg11p: no key change)
- MIC [1]: ≤ 0.06 mg/L [S]
- MIC [2]: 0.03 mg/L [S]
- MIC [3]: 0.03 mg/L [S]
- MIC [4]: 0.5 mg/L [S]
- MIC [5]: 0.12 mg/L [S]
- MIC [6]: 0.12 mg/L [S]
- MIC [7]: 0.06 mg/L [S]
- MIC [8]: 1 mg/L [S]
- MIC [9]: 0.03 mg/L [S]

Test System: Candida tropicalis isolate 118 (ERG11 copies: 2, Erg11p: no key change)
- MIC [1]: 0.12 mg/L [S]
- MIC [2]: 0.5 µg/mL
- MIC [3]: 0.03 mg/L [S]
- MIC [4]: 1 mg/L [S]
- MIC [5]: 0.5 mg/L [R]
- MIC [6]: 0.5 mg/L [S]
- MIC [7]: 0.12 mg/L [S]
- MIC [8]: 2 mg/L [S]
- MIC [9]: 0.06 mg/L [S]

Test System: Candida tropicalis isolate 386 (ERG11 copies: 2, Erg11p: no key change)
- MIC [1]: ≤ 0.06 mg/L [S]
- MIC [2]: 0.12 mg/L [S]
- MIC [3]: 0.03 mg/L [S]
- MIC [4]: 1 mg/L [S]
- MIC [5]: 0.12 mg/L [S]
- MIC [6]: 0.25 mg/L [S]
- MIC [7]: 0.12 mg/L [S]
- MIC [8]: 2 mg/L [S]
- MIC [9]: 0.06 mg/L [S]

Test System: Candida tropicalis isolate 443 (ERG11 copies: 2, Erg11p: no key change)
- MIC [1]: ≤ 0.06 mg/L [S]
- MIC [2]: 0.06 mg/L [S]
- MIC [3]: 0.03 mg/L [S]
- MIC [4]: 1 mg/L [S]
- MIC [5]: 0.25 mg/L [S]
- MIC [6]: 0.25 mg/L [S]
- MIC [7]: 0.03 mg/L [S]
- MIC [8]: 1 mg/L [S]
- MIC [9]: 0.03 mg/L [S]

Test System: Candida tropicalis isolate 201 (ERG11 copies: 2, Erg11p: Y132F, S154F (heterozygous))
- MIC [1]: ≤ 0.06 mg/L [S]
- MIC [2]: 1 mg/L [R]
- MIC [3]: 0.03 mg/L [S]
- MIC [4]: 0.5 mg/L [S]
- MIC [5]: 0.5 mg/L [R]
- MIC [6]: 0.5 mg/L [S]
- MIC [7]: 0.12 mg/L [S]
- MIC [8]: 32 mg/L [R]
- MIC [9]: 0.03 mg/L [S]

Test System: Candida tropicalis isolate 169 (ERG11 copies: 2, Erg11p: no key change)
- MIC [1]: ≤ 0.06 mg/L [S]
- MIC [2]: 0.12 mg/L [S]
- MIC [3]: 0.03 mg/L [S]
- MIC [4]: 2 mg/L [S]
- MIC [5]: 0.5 mg/L [R]
- MIC [6]: 0.25 mg/L [S]
- MIC [7]: 0.03 mg/L [S]
- MIC [8]: 2 mg/L [S]
- MIC [9]: 0.03 mg/L [S]

Test System: Candida tropicalis isolate 124 (ERG11 copies: 2, Erg11p: no key change)
- MIC [1]: ≤ 0.06 mg/L [S]
- MIC [2]: ≥ 8 mg/L [R]
- MIC [3]: 0.03 mg/L [S]
- MIC [4]: 1 mg/L [S]
- MIC [5]: 1 mg/L [R]
- MIC [6]: 1 mg/L [R]
- MIC [7]: 0.03 mg/L [S]
- MIC [8]: 256 mg/L [R]
- MIC [9]: 0.03 mg/L [S]

Test System: Candida tropicalis isolate 141 (ERG11 copies: 2, Erg11p: no key change)
- MIC [1]: ≤ 0.06 mg/L [S]
- MIC [2]: 0.12 mg/L [S]
- MIC [3]: 0.06 mg/L [S]
- MIC [4]: 1 mg/L [S]
- MIC [5]: 0.12 mg/L [S]
- MIC [6]: 0.12 mg/L [S]
- MIC [7]: ≤ 0.015 mg/L [S]
- MIC [8]: 2 mg/L [S]
- MIC [9]: 0.015 mg/L [S]

Test System: Candida tropicalis isolate 26 (ERG11 copies: 2, Erg11p: no key change)
- MIC [1]: ≤ 0.06 mg/L [S]
- MIC [2]: 0.015 mg/L [S]
- MIC [3]: 0.06 mg/L [S]
- MIC [4]: 0.5 mg/L [S]
- MIC [5]: 0.03 mg/L [S]
- MIC [6]: 0.06 mg/L [S]
- MIC [7]: 0.03 mg/L [S]
- MIC [8]: 0.25 mg/L [S]
- MIC [9]: 0.015 mg/L [S]

Test System: Candida tropicalis isolate 10 (ERG11 copies: 2, Erg11p: no key change)
- MIC [1]: 0.12 mg/L [S]
- MIC [2]: 0.12 mg/L [S]
- MIC [3]: 0.03 mg/L [S]
- MIC [4]: 1 mg/L [S]
- MIC [5]: 0.25 mg/L [S]
- MIC [6]: 0.25 mg/L [S]
- MIC [7]: 0.03 mg/L [S]
- MIC [8]: 2 mg/L [S]
- MIC [9]: 0.03 mg/L [S]

Test System: Candida tropicalis isolate 142 (ERG11 copies: 2, Erg11p: no key change)
- MIC [1]: ≤ 0.06 mg/L [S]
- MIC [2]: 0.015 mg/L [S]
- MIC [3]: 0.5 µg/mL
- MIC [4]: 0.25 mg/L [S]
- MIC [5]: 0.06 mg/L [S]
- MIC [6]: 0.06 mg/L [S]
- MIC [7]: 0.5 µg/mL
- MIC [8]: 1 mg/L [S]
- MIC [9]: 1 mg/L [R]

Test System: Candida tropicalis isolate 391 (ERG11 copies: 2, Erg11p: Y132F, S154F (homozygous))
- MIC [1]: ≤ 0.06 mg/L [S]
- MIC [2]: 2 mg/L [R]
- MIC [3]: 0.03 mg/L [S]
- MIC [4]: 1 mg/L [S]
- MIC [5]: 0.5 mg/L [R]
- MIC [6]: 0.5 mg/L [S]
- MIC [7]: 0.03 mg/L [S]
- MIC [8]: 64 mg/L [R]
- MIC [9]: 0.03 mg/L [S]

Test System: Candida tropicalis isolate 331 (ERG11 copies: 2, Erg11p: no key change)
- MIC [1]: ≤ 0.06 mg/L [S]
- MIC [2]: ≥ 8 mg/L [R]
- MIC [3]: 0.06 mg/L [S]
- MIC [4]: 2 mg/L [S]
- MIC [5]: 1 mg/L [R]
- MIC [6]: 1 mg/L [R]
- MIC [7]: 0.06 mg/L [S]
- MIC [8]: 256 mg/L [R]
- MIC [9]: 0.03 mg/L [S]

Test System: Candida tropicalis isolate 35 (ERG11 copies: 2, Erg11p: no key change)
- MIC [1]: ≤ 0.06 mg/L [S]
- MIC [2]: 0.06 mg/L [S]
- MIC [3]: 0.12 mg/L [S]
- MIC [4]: 0.5 mg/L [S]
- MIC [5]: 0.12 mg/L [S]
- MIC [6]: 0.25 mg/L [S]
- MIC [7]: 0.12 mg/L [S]
- MIC [8]: 1 mg/L [S]
- MIC [9]: 0.06 mg/L [S]

Test System: Candida tropicalis isolate 388 (ERG11 copies: 2, Erg11p: no key change)
- MIC [1]: ≤ 0.06 mg/L [S]
- MIC [2]: 0.12 mg/L [S]
- MIC [3]: 0.06 mg/L [S]
- MIC [4]: 0.5 mg/L [S]
- MIC [5]: 1 mg/L [R]
- MIC [6]: 0.5 mg/L [S]
- MIC [7]: 0.06 mg/L [S]
- MIC [8]: 2 mg/L [S]
- MIC [9]: 0.03 mg/L [S]

Test System: Candida tropicalis isolate 258 (ERG11 copies: 2, Erg11p: no key change)
- MIC [1]: ≤ 0.06 mg/L [S]
- MIC [2]: 0.25 µg/mL
- MIC [3]: 0.06 mg/L [S]
- MIC [4]: 1 mg/L [S]
- MIC [5]: 0.5 mg/L [R]
- MIC [6]: 0.5 mg/L [S]
- MIC [7]: 0.12 mg/L [S]
- MIC [8]: 2 mg/L [S]
- MIC [9]: 0.03 mg/L [S]

Test System: Candida tropicalis isolate 293 (ERG11 copies: 2, Erg11p: no key change)
- MIC [1]: ≤ 0.06 mg/L [S]
- MIC [2]: 0.12 mg/L [S]
- MIC [3]: 0.12 mg/L [S]
- MIC [4]: 0.5 mg/L [S]
- MIC [5]: 0.12 mg/L [S]
- MIC [6]: 0.25 mg/L [S]
- MIC [7]: 0.12 mg/L [S]
- MIC [8]: 2 mg/L [S]
- MIC [9]: 0.06 mg/L [S]

Test System: Candida tropicalis isolate 341 (ERG11 copies: 2, Erg11p: Y132F, S154F (heterozygous))
- MIC [1]: ≤ 0.06 mg/L [S]
- MIC [2]: 0.25 µg/mL
- MIC [3]: 0.06 mg/L [S]
- MIC [4]: 1 mg/L [S]
- MIC [5]: 0.12 mg/L [S]
- MIC [6]: 0.25 mg/L [S]
- MIC [7]: 0.12 mg/L [S]
- MIC [8]: 4 µg/mL
- MIC [9]: 0.03 mg/L [S]
